According to publication PMC5515408:
Some of the results follow. At the low end of the ranking the order means little.

molecular target: MAX:MAX (p21) (UniProt P61244-2); test: protein-binding microarray (anti-MAX antibody); conditions: PBM: 15 mM Tris-HCl pH 7.5, 100 mM KCl, 0.075% NP40, 7.5 mM beta-mercaptoethanol, 375 ng/ul BSA, 8 ng/ul poly(dA-dT):(dA-dT), 550 ng complex, 60 min, room …; high values mean tight binding; double strand, one strand shown; sequences stand for … in CCGGC…TTAATAGCTAAGATTACTATATCGACG

Row | Sequence | binding signal (log2 normalized fluorescence)
1 | TGACAGACCGTA | 0.179
2 | TGATCTCCAGTA | -0.862
3 | TGATAAGTCGTA | -0.823
4 | AATCACGTGGTA | 3.26
5 | TGATTGGCGGTA | -0.895
6 | TGAGTCACGGTA | 0.589
7 | TGCTACGTGGTA | 1.63
8 | TTGCACGTGGTA | 3.31
9 | TGAAAGCATGTA | 2.81
10 | TGAAACTTCGTA | -0.742
11 | TGACAAGTGGCA | 1.13
12 | TGAGATGAGGTA | -0.164
13 | TGAAAAAGGGTA | -0.51
14 | TGAGGCCAAGTA | -1.07
15 | TGATCTAGTGTA | -0.882
16 | GTGCACGTGGTA | 3.47
17 | TGATGTTCAGTA | 0.0777
18 | TGAGGGCCTGTA | -0.369
19 | TGGCACAGGGTA | 0.826
20 | TGATACAATGTA | -0.525
21 | TGACGGCCGGTA | -0.717
22 | TGACAATTTGTA | -0.713
23 | TGAATTTTTGTA | -1.32
24 | TGACACTCAGTA | -0.0284
25 | TGAAGATTGGTA | -0.969

Row | Sequence | binding signal (log2 normalized fluorescence)
26 | ACACACCTGGTA | 3.07
27 | TGATATTCGGTA | -1.15
28 | TGAGCATTAGTA | -0.394
29 | TGATCTACTGTA | -0.756
30 | TGAGTGTCTGTA | 0.0693
31 | TGAGTATATGTA | -1.16
32 | TGAGAACCCGTA | -0.628
33 | TGACTATCCGTA | -0.802
34 | TGAGGAGCCGTA | -0.812
35 | TGAGTATCAGTA | -1.31
36 | CAAATACAGAGC | -0.628
37 | TTGCACGTGGTT | 3.23
38 | TGAGGTTCCGTA | -0.799
39 | TGACATCAGGTA | 0.218
40 | TCACACGCGGTT | 3.17
41 | TGATATGCTGTA | -0.468
42 | TGAATGTGGGTA | 0.753
43 | TGAGGCCATGTA | 0.0723
44 | TGAGAGTCCGTA | -1.15
45 | TGACCGATAGTA | -0.854
46 | TGATGCGTAGTA | -0.342
47 | TGAAATGTAGTA | -0.762
48 | TGACAGTGTGTA | 0.713
49 | TGATACCCCGTA | -0.534
50 | TGATTTAGAGTA | -1.28

Row | Sequence | binding signal (log2 normalized fluorescence)
51 | TGAAAAAGTGTA | -0.641
52 | TGAAACGTGGAC | 2.91
53 | TGATTAAGGGTA | -0.832
54 | TGACGGACTGTA | -0.344
55 | TGACCACCAGTA | 0.44
56 | TGAAACCTCGTA | 0.0071
57 | TGACAGAGGGTA | -0.449
58 | TGAATTTGTGTA | -0.884
59 | TGACACGCTTTA | 2.75
60 | CGACCCGTGGTA | 2.57
61 | TGATTCATGGTA | 0.201
62 | TGAAATTTGGTA | -1.22
63 | TGACACAACGTA | 0.41
64 | TGAGCCTGAGTA | -0.659
65 | TGATTTTGAGTA | -1.43
66 | TGAATGTATGTA | 0.22
67 | TGAGTTTATGTA | -1.11
68 | TGAGAAGTAGTA | -0.94
69 | TGAGGGGAAGTA | 0.0524
70 | TGAATGTGCGTA | 1.47
71 | TGAAGACCCGTA | -0.489
72 | TGACATGTGGCA | 3.15
73 | TGACCGGAGGTA | -0.047
74 | TGATATAACGTA | -0.719
75 | TGAGAATGTGTA | 0.399

Row | Sequence | binding signal (log2 normalized fluorescence)
76 | TGATGGGTAGTA | -0.121
77 | TGTCATGTAGTA | 0.762
78 | TGGCACGAGGTT | 3.28
79 | TGAGCGCAAGTA | -0.162
80 | TGACACGTCTGA | 1.46
81 | TGAGTAAACGTA | -1.16
82 | TGACACCGGGTA | 0.829
83 | TGAGACGTCGTA | -0.583
84 | TGATTCGGTGTA | -0.834
85 | TGATCGCCCGTA | -0.637
86 | TGACACGTGGTT | 3.37
87 | TGATCCCCAGTA | -0.709
88 | TGCATCGTGGTA | 2.94
89 | CGACACGTGATA | 3.43
90 | TGATAACGGGTA | -0.518
91 | TGACTACATGTA | 0.58
92 | TGACTTGAGGTA | 0.118
93 | TGACACGTCTTA | 1.31
94 | TGAGACTTCGTA | -1.18
95 | TGACACGCGCTA | 3.07
96 | TGACTCGCTGTA | 0.114
97 | TGACTTCTCGTA | -0.755
98 | GGACACGAGGTA | 3.32
99 | TGAGCTAAGGTA | -1.18
100 | TGAATACGCGTA | -0.433

Row | Sequence | binding signal (log2 normalized fluorescence)
101 | TGATGGAACGTA | -0.0356
102 | TGAACACTGGTA | -0.234
103 | TGACACCTCTTA | 0.41
104 | TGACCATGCGTA | 2.79
105 | TGAGGACAAGTA | -0.473
106 | TGAGGCGAGGTA | 0.294
107 | TGAATGTTTGTA | 0.196
108 | TGATCTGAGGTA | -0.909
109 | TGACCCGCCGTA | -0.0413
110 | GAACACGTAGTA | 2.25
111 | TGAACAGAAGTA | -0.726
112 | TGACCCTACGTA | -0.247
113 | TGATATAAGGTA | -1
114 | TGAAGGAAAGTA | -0.742
115 | TGAACGCAAGTA | 0.234
116 | TGACTCTGGGTA | -1.04
117 | TGATAAGTGGGA | -0.757
118 | TCACAAGTGGTA | 1.87
119 | TCAGTCGTGGTA | 1.1
120 | TGCCACGTCGCA | 2.16
121 | TGAATACCGGTA | -0.896
122 | TGACATTACGTA | 0.0225
123 | TGAAGACACGTA | 0.591
124 | TGACGCGCAGTA | 0.0706
125 | TGACAGGAGGCA | 0.958

Row | Sequence | binding signal (log2 normalized fluorescence)
126 | TGATCAGTTGTA | 0.0196
127 | TAATACGGGGTA | -0.331
128 | TGAATGTGAGTA | 0.436
129 | TGAGGTAAGGTA | -0.513
130 | TGAACATCTGTA | 0.466
131 | TGACAAACAGTA | 0.0575
132 | TGAGTTTTCGTA | -1.1
133 | TGAGGACATGTA | 0.549
134 | TGAAGCCTCGTA | -0.718
135 | TGACATCCAGTA | -0.117
136 | TGATAGCCAGTA | -1.02
137 | CGCAACGTGGTA | 3.08
138 | TGAATATACGTA | -0.895
139 | TGATCGCAAGTA | -0.25
140 | TGAAGACGGGTA | -0.654
141 | TACTACGTGGTA | 1.83
142 | TGATGTGGCGTA | 0.0972
143 | TGACACAGTGTA | 0.387
144 | TGACCATCCGTA | 0.116
145 | TGATGGTTCGTA | -0.114
146 | TGAAAAATCGTA | -1.14
147 | AGACACGTAGTA | 2.46
148 | TGAGTTTCGGTA | -1.2
149 | TGATACTTGGTT | -0.867
150 | TGACCGTATGTA | 0.677

Row | Sequence | binding signal (log2 normalized fluorescence)
151 | TGAGCCCCTGTA | -0.569
152 | TGACGAAGAGTA | -0.775
153 | TGACAGTGGGTA | -0.279
154 | TGATATTACGTA | -0.718
155 | TGATTCAGGGTA | -0.966
156 | TGATATGTCGTA | -0.856
157 | TGACACGTCTAA | 0.936
158 | TGATGGCTCGTA | -0.0028
159 | TGAGTTTGAGTA | -1.35
160 | TGAATACCCGTA | -0.713
161 | TGATCTTGGGTA | -0.93
162 | TGACTACAGGTA | -0.577
163 | TGACGTTACGTA | -0.0122
164 | TGATAGGTCGTA | -1.23
165 | TGATATGGTGTA | -0.358
166 | TGAGTTGAAGTA | -0.949
167 | CGACACGTTGTA | 3.14
168 | TGAACGGTGGTA | 0.0564
169 | TGAACCCGCGTA | -0.175
170 | TGATCACACGTA | 1.49
171 | TGATGGTAGGTA | 0.124
172 | TGAGCTAGCGTA | -1.37
173 | TGACGTTATGTA | -0.148
174 | TGATCATCTGTA | -0.0292
175 | TGAGTACATGTA | 0.314
